Test results: PubChem BioAssay AID504832 (National Center for Advancing Translational Sciences (NCATS), 2011)
The campaign covered roughly 310,000 compounds. About 18,000 (5.8%) were called active. Inconclusive results, whose numbers are uncertain, are shown with a selection of clear calls. The call rests on the fitted dose curve; in most records, active means well fitted inhibition curve with a large enough effect; inconclusive means small, poorly fitted or top-dose-only effect, or another doubt; inactive means no such curve, though single readings can be large or run the other way. No potency is given beside an inconclusive call; the fits are too rough.
Potency means the concentration at half of the fitted maximal effect; tags describe the fitted curve by direction and shape.

Test: Primary qHTS for delayed death inhibitors of the malarial parasite plastid, 48 hour incubation
Conditions: P. falciparum luciferase growth in erythrocytes; series mostly up to 28.7 µM
Outline: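 First compound was added to culture medium, then infected red cells at 0.1% parasitemia and 2% hematocrit (final). After incubation at 37 C under 5% CO2, luciferase detection reagent was dispensed and light output recorded.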
With `O=C(CCNC(=O)c1ccco1)Nc1ccc(Cl)cc1F` the Potency was “inactive”.
With `Cc1cc(=O)oc2ccc(OCC(=O)N3CCC(C)CC3)cc12` the Potency was “inactive”.
In the case of `Cc1ccc(S(=O)(=O)NC2=C(N3CCN(Cc4ccccc4)CC3)C(=O)c3ccccc3C2=O)cc1`, the Potency is reported as inconclusive [inhibitor, partial curve].
In the case of `Cn1nnc2c[n+](CC(=O)c3ccc4ccccc4c3)cc(Br)c21`, the Potency is reported as active: 11.7 µM.
For `O=C(Nc1ccc(C(=O)N2CCOCC2)cc1)Nc1cccc(Cl)c1`, the Potency was “inactive”.
In the case of `O=C(c1ccc2nc(-c3ccccc3)c(-c3ccccc3)nc2c1)N1CCCCC1`, the Potency is reported as “inactive”.
With `CC(=O)Nc1ccc(OS(=O)(=O)c2ccc(Cl)cc2)cc1` the Potency was inconclusive [inhibitor, full curve, poor fit].
With `CCOC(=O)C1CCN(C(=O)C2CCN(S(=O)(=O)c3cc(Cl)ccc3Cl)CC2)CC1` the Potency was inconclusive [inhibitor, single point].
With `COc1cc(/C=N/NC(=O)C2CCN(CC(O)COCc3ccccc3)CC2)ccc1O` (stereo not given) the Potency was inconclusive [inhibitor, full curve, poor fit].
With `O=C(NC(=O)N1CCN(C(c2ccccc2)c2ccccc2)CC1)c1ccccc1` the Potency was active: 13.1 µM.
In the case of `O=C(Cn1cc(/C=N/NC(=O)c2cccc3ccccc23)c2ccccc21)Nc1ccc(F)cc1`, the Potency is reported as inconclusive [inhibitor, partial curve].
For `CC(C)(C)n1nc2c(c1NC(=O)c1ccc(S(=O)(=O)N3CCCCC3)cc1)CS(=O)C2` (stereo not given), the Potency was inconclusive [inhibitor, single point].
For `O=C(Nc1ncccn1)c1ccc(Cl)c([N+](=O)[O-])c1`, the Potency was inconclusive [inhibitor, full curve, poor fit].
For `COc1ccc2nc(N3CCC(C)CC3)c(C#N)cc2c1`, the Potency was “inactive”.
For `CN(Cc1nc(-c2ccccc2)no1)C(=O)c1ccco1`, the Potency was “inactive”.
With `Cc1cc(OI)c(C(C)C)cc1-c1cc(C(C)C)c(OI)cc1C` the Potency was inconclusive [inhibitor, partial curve].
With `C=C1C(=O)[C@@]23[C@H](O)C[C@@H]4C(C)(C)CC[C@H](O)[C@@]4(C)[C@@H]2CC[C@@H]1[C@H]3O` the Potency was active: 14.7 µM.
With `COc1ccc2[nH]cc(CCNC(=O)Cc3c(F)cccc3Cl)c2c1` the Potency was inconclusive [inhibitor, full curve, poor fit].
For `COc1ccc([N+](=O)[O-])cc1NS(=O)(=O)c1cc(C(=O)N2CCN(C)CC2)ccc1OC`, the Potency was “inactive”.
In the case of `COc1cc(Nc2nc3ccc(Cl)cc3n3cnnc23)cc(OC)c1OC`, the Potency is reported as inconclusive [inhibitor, single point].
